Screen size: about 350,000 compounds; about 31,000 (8.9%) were called active. The inconclusive results got no clear call from the source; some entries with a clear call stand among them for comparison. Calls come from the whole dose curve; as a rule, active = well fitted inhibition curve with a large enough effect; inconclusive = small, poorly fitted or top-dose-only effect; inactive = no such curve, though single readings can be large or run the other way. Where the call is inconclusive, the potency comes from a doubtful curve fit.
Target: Histone-lysine N-methyltransferase EHMT2 (Homo sapiens) (UniProt Q96KQ7)
Chain of UniProt Q96KQ7 (Q96KQ7 whole entry, looked up): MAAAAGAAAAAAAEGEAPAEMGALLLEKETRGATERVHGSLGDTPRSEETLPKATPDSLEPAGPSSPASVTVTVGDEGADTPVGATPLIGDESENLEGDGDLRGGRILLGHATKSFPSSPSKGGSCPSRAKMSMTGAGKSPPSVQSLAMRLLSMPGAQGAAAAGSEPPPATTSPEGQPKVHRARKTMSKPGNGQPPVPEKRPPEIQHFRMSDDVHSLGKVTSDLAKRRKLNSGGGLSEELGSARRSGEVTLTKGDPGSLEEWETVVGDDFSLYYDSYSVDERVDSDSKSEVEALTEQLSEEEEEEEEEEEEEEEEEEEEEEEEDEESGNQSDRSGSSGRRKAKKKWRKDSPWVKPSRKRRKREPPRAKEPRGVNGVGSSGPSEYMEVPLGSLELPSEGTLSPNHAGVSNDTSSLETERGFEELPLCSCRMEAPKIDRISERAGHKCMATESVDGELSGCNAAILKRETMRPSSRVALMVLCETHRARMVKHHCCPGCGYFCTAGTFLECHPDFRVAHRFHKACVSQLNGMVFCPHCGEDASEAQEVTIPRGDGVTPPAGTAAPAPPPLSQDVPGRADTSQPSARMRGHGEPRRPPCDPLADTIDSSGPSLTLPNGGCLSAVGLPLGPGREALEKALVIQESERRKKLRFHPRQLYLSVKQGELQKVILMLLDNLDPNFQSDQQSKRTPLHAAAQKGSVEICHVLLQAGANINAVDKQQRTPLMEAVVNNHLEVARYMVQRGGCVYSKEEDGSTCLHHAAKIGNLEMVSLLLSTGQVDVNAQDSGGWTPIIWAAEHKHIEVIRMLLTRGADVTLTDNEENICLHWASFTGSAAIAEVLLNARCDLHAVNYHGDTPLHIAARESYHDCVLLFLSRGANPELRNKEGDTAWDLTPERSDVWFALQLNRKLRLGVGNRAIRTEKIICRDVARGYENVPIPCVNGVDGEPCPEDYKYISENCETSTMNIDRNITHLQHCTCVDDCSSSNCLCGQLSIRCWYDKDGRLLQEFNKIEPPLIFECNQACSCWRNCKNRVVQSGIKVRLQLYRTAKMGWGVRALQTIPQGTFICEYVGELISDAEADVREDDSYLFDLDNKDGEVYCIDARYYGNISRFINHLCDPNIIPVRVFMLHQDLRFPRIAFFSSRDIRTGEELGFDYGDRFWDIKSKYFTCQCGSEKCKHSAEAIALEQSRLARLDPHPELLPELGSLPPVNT
Assay: qHTS Assay for Inhibitors of Histone Lysine Methyltransferase G9a; note: nearly all actives have a fitted effect of over 75% in size
Settings: G9a H3K9 monomethylation, AlphaScreen, 2 h; activity, negative = inhibition: at 59 µM (top of the series) unless noted
Procedure, shortened: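 Methyltransferase reactions run at room temperature for 2 h (20 nM enzyme, 500 nM biotin-H3K9 peptide, 20 uM SAM) after a 15 min compound preincubation; product detected by AlphaScreen beads and anti-H3K9me1 antibody.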
% is set by controls: 0 for no effect and ±100 for the full control effect; potency is the fitted concentration of half-maximal effect; tags give direction and shape of the fitted curve.

SMILES | Potency | activity, negative = inhibition
COc1cc(OC)c(-c2c3cc(O)c(=O)cc-3oc3cc(O)c(O)cc23)cc1OC | active: 10 µM | –
COc1ccc(OC)c(CCNC(=O)CC2Oc3ccc(C)cc3NC2=O)c1 (configuration not stated) | inconclusive: 89.1 µM [inhibitor, single point] | –
COc1cc(/C=N/Nc2ccc(C(=O)O)cc2)ccc1O | inconclusive: 25.1 µM [inhibitor, full curve, poor fit] | –
CCCCn1c(/C=C/c2ccco2)nc2ccccc21 | active: 8.91 µM | –
C=CCN(Cc1ccc(Cl)s1)C(=O)c1cc(S(=O)(=O)N2CCOCC2)ccc1F | – | inactive: 6.75% [at 12.7 µM]
CCOc1ccc(N(C(=O)c2ccc(C)cc2)S(=O)(=O)c2ccc3c(c2)n(C)c(=O)n3C)cc1 | inconclusive: 39.8 µM [inhibitor, partial curve, poor fit] | –
COCc1nc2c([nH]1)c(=O)n(C)c(=O)n2CC(C)C | inactive | –
CN(C)c1cccc(C(=O)N/C=C/n2cnc3cc(C(F)(F)F)ccc32)c1 | inconclusive: 44.7 µM [inhibitor, partial curve, poor fit] | –
CSc1sc(C(=O)NC(=O)NCc2ccncc2)c(C)c1-c1ccon1 | inconclusive: 50.1 µM [inhibitor, partial curve, poor fit] | –
COc1ccc(CC(=O)Nc2nc(-c3ccccc3)c(C(C)=O)s2)cc1OC | inconclusive: 89.1 µM [inhibitor, single point] | –
COc1ccc2oc(=N)c(C(=O)Nc3ccccc3)cc2c1 | inconclusive: 31.6 µM [inhibitor, partial curve, poor fit] | –
Cc1cc(NC(=O)C2CC2)ncc1NC(=O)c1ccccn1 | inconclusive: 22.4 µM [inhibitor, full curve] | –
O=C(/C=C/c1ccc(OCc2ccccc2)c(OCc2ccccc2)c1)c1cccnc1 | inactive | –
C[C@H]([C@@H](N)C(=O)N[C@@H](C(=O)O)[C@@H]1O[C@H](n2ccc(=O)[nH]c2=O)[C@@H](O)[C@H]1O)[C@@H](O)c1ccc(O)cn1 | active: 3.16 µM | –
C#CCOCCOCCOCCNc1nc(N2CCOCC2)nc(N2CCN(C(=O)[C@H](CCCCN)n3cc([C@@H](N)C(C)CC)nn3)CC2)n1 (some centres not stated) | – | inconclusive: -98.6% [inhibitor]
CC(C)(C)C1CCC(=NNS(=O)(=O)c2ccc(Br)cc2)CC1 (configuration not stated) | active: 7.94 µM | –
CC(CN1CCCCC1)OC(=O)Cc1ccc(Cl)cc1 (configuration not stated) | inconclusive: 50.1 µM [inhibitor, partial curve, poor fit] | –
CC(C)(C)c1nnc(NC(=O)c2cc(-c3ccccc3)nc3ccccc23)s1 | inconclusive: 15.8 µM [inhibitor, full curve, poor fit] | –
CCCNC(=O)Cc1c(OC)ccc2cc(Br)ccc12 | inactive | –
COc1ccc(OC)c(NC(=O)c2ccc3c(c2)c(C)c(C)n3Cc2ccc(F)cc2)c1 | inconclusive: 3.98 µM [inhibitor, partial curve, poor fit] | –
CCN(CC)C(=O)Cn1c(=O)n(CCCCCC(=O)NCc2ccccc2Cl)c(=O)c2sccc21 | inactive | –
COc1ccc(CNC(=O)c2ccc(NS(=O)(=O)c3ccc4[nH]c(=O)[nH]c4c3)cc2)cc1OC | – | inactive: 19.8% [at 12.7 µM]
CCOC(=O)c1ccccc1NC(=O)COC(=O)C1CC(=O)N(c2ccc3c(c2)OCCO3)C1 (configuration not stated) | inconclusive: 35.5 µM [inhibitor, partial curve, poor fit] | –

SMILES | Potency | activity, negative = inhibition
Cc1nc(SCCC(=O)O)c2ccccc2n1 | inconclusive: 22.4 µM [inhibitor, partial curve, poor fit] | –
Oc1cccc(C2c3[nH]c4ccccc4c3CCN2Cc2ccc3c(c2)CCO3)c1 (configuration not stated) | inactive | –
Cc1ccc2oc3c(c(=O)c2c1)C(c1cccc(Cl)c1)N(CCCN1CCOCC1)C3=O (configuration not stated) | active: 50.1 µM | –
Nc1ccn(CC(=O)N[C@H](CO)Cc2c[nH]c3ccccc23)c(=O)n1 | – | inactive: -13.6% [at 2.33 µM]
OCc1ccccc1N=c1ssnc1Cl | – | inactive: -7.2% [at 2.33 µM]
CCOCCSC1=C(C#N)C(c2cccs2)C(C(C)=O)=C(C)N1 (configuration not stated) | – | inconclusive: -68.3% [inhibitor]
O=C(O)c1ccc(/C=C2\CCCc3c2nc2ccccc2c3C(=O)O)cc1 | inconclusive: 89.1 µM [inhibitor, single point] | –
Cc1ccc(NC(=O)Cn2c(C)cc(C)c(C#N)c2=O)cc1F | inactive | –
COc1ccccc1-c1cc(NCc2cnc(C)cn2)ncn1 | – | inconclusive: -63.9% [inhibitor] [at 0.501 µM]
Cc1cc(C)c(/C=C/c2onc(C)c2S(=O)(=O)N2CCC(C(=O)N3CCN(c4ccc(Cl)cc4)CC3)CC2)c(C)c1 | inactive | –
CN(C)c1ccc(N=Nc2ccccc2Br)cc1 | active: 3.55 µM | –
Cc1ccc(S(=O)(=O)NC(C(=O)N2CCOCCOCCOCC2)C(C)C)cc1 (configuration not stated) | inactive | –
CC1C=CCC2C(=O)N(c3cccc(C(=O)N4CCN(c5ccc(F)cc5)CC4)c3)C(=O)C12 (configuration not stated) | inconclusive: 0.794 µM [inhibitor, full curve, poor fit] | –
CN(CC(=O)Nc1ccc(F)cc1F)S(=O)(=O)c1ccc(C(=O)N2CCOCC2)s1 | inactive | –
O=C(Cn1cnc2ccccc2c1=O)Nc1ccccc1N1CCOCC1 | inconclusive: 44.7 µM [inhibitor, partial curve, poor fit] | –
Cn1c(CCN2CCCCC2)nc2cc(NS(=O)(=O)c3ccc(Cl)cc3)ccc21 | inconclusive: 56.2 µM [inhibitor, partial curve, poor fit] | –
COc1ccc(-n2nc(C(=O)N(C)C)nc2-c2ccccc2)cc1 | inconclusive: 89.1 µM [inhibitor, single point] | –
COc1ccc2[nH]c(C(=O)O)c(CCN3C(=O)c4cccc([N+](=O)[O-])c4C3=O)c2c1 | inconclusive: 50.1 µM [inhibitor, partial curve, poor fit] | –
CC(C)CC(OC(=O)c1ccc(Cl)nc1)C(=O)NC1CCCC1 (configuration not stated) | inconclusive: 89.1 µM [inhibitor, single point] | –
Cc1nc(-c2ccc(S(=O)(=O)NCc3cccnc3)s2)cs1 | inconclusive: 56.2 µM [inhibitor, partial curve, poor fit] | –
CC(C)c1ccccc1OCC(O)CN1CCN(S(=O)(=O)c2ccc([N+](=O)[O-])cc2)CC1 (configuration not stated) | active: 35.5 µM | –
O=C(Cc1csc2ccccc12)NCc1ccccc1F | inactive | –
Cc1cc(Cn2ccnc2)c(C)cc1Cn1ccnc1 | inconclusive: 79.4 µM [inhibitor, partial curve, poor fit] | –

SMILES | Potency | activity, negative = inhibition
Cc1[nH]nc(SCC(=O)N(C)c2ccccc2)c1[N+](=O)[O-] | inconclusive: 31.6 µM [inhibitor, partial curve, poor fit] | –
CCOc1ccc(-c2nonc2NC(=O)c2ccc(C)cc2)cc1OCC | inactive | –
CN(Cc1ccc(F)cc1)C(=O)CNC(=O)C1CCCCC1 | inactive | –
Cn1c(N/N=C/c2c[nH]c3ccccc23)nc2ccccc21 | – | inconclusive: -69.1% [inhibitor]
CC(C)Cn1c(N)c(C(=O)COC(=O)C2CCCCC2)c(=O)n(C)c1=O | inconclusive: 89.1 µM [inhibitor, partial curve, poor fit] | –
O=C(NCc1ccc(F)cc1)c1cnc2sccn2c1=O | inconclusive: 50.1 µM [inhibitor, partial curve] | –
N/C(=N\OC(=O)c1cccc(Br)c1)c1ccccn1 | inconclusive: 50.1 µM [inhibitor, single point] | –
O=C(Cn1nc(Cc2cccnc2)c2ccccc2c1=O)Nc1cccc(C(F)(F)F)c1 | inconclusive: 39.8 µM [inhibitor, partial curve, poor fit] | –
Cc1nc(-c2ccc(S(=O)(=O)Nc3ccccc3C)cc2)co1 | inconclusive: 20 µM [inhibitor, partial curve, poor fit] | –
Cc1ccc(OCc2ccc(C(=O)N3CCCC3)o2)c([N+](=O)[O-])c1 | inconclusive: 89.1 µM [inhibitor, single point] | –
COc1ccc2c(C)cc(SCC(=O)Nc3cccnc3Cl)nc2c1 | – | inactive: 31.2% [at 12.7 µM]
COc1ccc([C@@H]2[C@@H](C(=O)C(C)(C)C)N3N=Cc4ccccc4[C@@H]3C23C(=O)OC(C)(C)OC3=O)cc1OC | inconclusive: 39.8 µM [inhibitor, partial curve, poor fit] | –
Nc1cc(=O)[nH]c(SCC(=O)Nc2cc([N+](=O)[O-])ccc2Cl)n1 | inactive | –
Clc1ccc(SCCOCCN2CCCCC2)cc1 | inconclusive: 22.4 µM [inhibitor, partial curve, poor fit] | –
O=C(O)CCn1c(=O)[nH]c2ccccc2c1=O | inconclusive: 20 µM [inhibitor, full curve] | –
Cc1cccc(-n2ccnc2SCC(=O)Nc2nccs2)c1C | inconclusive: 50.1 µM [inhibitor, partial curve, poor fit] | –
COc1ccc(NC(=O)c2noc3c2CSc2ccccc2-3)cc1Cl | inactive | –
COc1ccc(CN(C)C(=O)c2cccc(S(=O)(=O)N3CCc4ccccc43)c2)c(OC)c1 | inconclusive: 3.16 µM [inhibitor, partial curve, poor fit] | –
CCc1cccc(-n2nnc(-c3nc(-c4cccs4)no3)c2N)c1 | inactive | –
COc1ccc(Nc2ncnc3sc(C)cc23)c(OC)c1 | inconclusive: 89.1 µM [inhibitor, single point] | –
CCOc1ccc2c(c1)sc(N)[n+]2Cc1cc(C)cc2cccnc12 | inconclusive: 89.1 µM [inhibitor, single point] | –

Source: PubChem BioAssay AID504332 (National Center for Advancing Translational Sciences (NCATS), 2011)
